The whole screen tested about 310,000 compounds, of which about 2,200 (0.71%) showed an effect of 50% or more. Effects have a minus sign here. This is one part of the list.

Sequence of human ether-à-go-go-related gene (hERG) potassium channel (Q12809 whole entry, looked up): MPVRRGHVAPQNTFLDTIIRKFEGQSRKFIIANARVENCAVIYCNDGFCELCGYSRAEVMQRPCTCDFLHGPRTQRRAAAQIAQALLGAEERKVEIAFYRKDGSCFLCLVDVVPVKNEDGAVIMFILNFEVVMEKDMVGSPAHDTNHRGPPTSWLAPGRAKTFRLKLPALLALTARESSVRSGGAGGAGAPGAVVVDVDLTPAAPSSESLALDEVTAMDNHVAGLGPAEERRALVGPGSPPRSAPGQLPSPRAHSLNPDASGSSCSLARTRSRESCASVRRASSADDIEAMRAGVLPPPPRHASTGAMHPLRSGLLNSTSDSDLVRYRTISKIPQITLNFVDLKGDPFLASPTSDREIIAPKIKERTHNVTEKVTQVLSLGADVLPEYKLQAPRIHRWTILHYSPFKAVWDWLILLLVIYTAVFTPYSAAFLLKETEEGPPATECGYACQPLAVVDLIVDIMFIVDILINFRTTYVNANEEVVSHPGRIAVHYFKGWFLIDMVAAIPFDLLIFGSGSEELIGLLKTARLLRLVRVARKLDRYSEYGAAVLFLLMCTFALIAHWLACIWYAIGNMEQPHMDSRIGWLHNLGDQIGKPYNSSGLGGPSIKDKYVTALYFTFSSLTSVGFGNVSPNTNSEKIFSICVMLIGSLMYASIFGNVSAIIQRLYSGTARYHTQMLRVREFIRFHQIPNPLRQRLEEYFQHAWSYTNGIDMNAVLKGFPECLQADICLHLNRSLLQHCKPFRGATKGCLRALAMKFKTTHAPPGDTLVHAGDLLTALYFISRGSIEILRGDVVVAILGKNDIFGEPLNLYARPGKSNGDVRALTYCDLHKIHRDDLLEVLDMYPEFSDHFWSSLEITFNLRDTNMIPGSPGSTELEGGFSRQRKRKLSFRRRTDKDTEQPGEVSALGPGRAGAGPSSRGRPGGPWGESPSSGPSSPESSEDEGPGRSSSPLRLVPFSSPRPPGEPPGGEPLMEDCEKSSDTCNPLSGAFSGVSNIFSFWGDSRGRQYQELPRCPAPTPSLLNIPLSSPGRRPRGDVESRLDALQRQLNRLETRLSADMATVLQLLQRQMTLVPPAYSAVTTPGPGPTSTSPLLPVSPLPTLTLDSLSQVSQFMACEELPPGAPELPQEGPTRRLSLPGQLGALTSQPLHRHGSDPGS

This assay has as its target human ether-à-go-go-related gene (hERG) potassium channel (human, UniProt Q12809). The experiment in a line: primary screen, population patch clamp on CHO cells stably expressing hERG.
For `Cc1ccc(S(=O)(=O)NCCc2cc3ccc(C)cc3[nH]c2=O)cc1`, the “hERG current change (%, negative = inhibition) at 1uM” value is reported as 7.36%. `COc1ccc(C)cc1S(=O)(=O)NCCN1CCOCC1`: the “hERG current change (%, negative = inhibition) at 1uM” value stood at 12.5%. Take `COc1cc(CN(C(=S)NCC(=O)O)C2CCCC2)cc(OC)c1OC`: the “hERG current change (%, negative = inhibition) at 1uM” value worked out at 18.1%.

With `CCNC(=S)NNC(=O)c1ccc2ncccc2c1`, the “hERG current change (%, negative = inhibition) at 1uM” value was 1.32%. With `Clc1cc(NCc2ccccc2)ncn1` the figure was 16.9%; with `CCCCS(=O)(=O)Nc1ccc(C(=O)NCC2CCCO2)cc1` (stereo not shown), 7.38%; with `CCOC(=O)Nc1nnc(-c2cccc(OC)c2)s1`, -3.94%. With `CC(=O)c1c(C)[nH]c(C(=O)OCC(=O)N2CCCC2=O)c1C` the figure was 11.5%. With `CC(C)C[C@H](NC(=O)c1nc[nH]c1C(=O)N1CCC(C)CC1)C(=O)OC(C)(C)C` the figure was 9.91%; with `CCCCSc1nc(C)cc(C)c1S(=O)(=O)c1ccccc1C`, 8.01%; with `O=C(N/N=C/c1ccccc1[N+](=O)[O-])c1cccs1`, 14.1%. With `CCN(CC)CCn1c(=S)[nH]c2cc(C(=O)N3CC(C)CC(C)C3)ccc2c1=O` (stereo not shown), the “hERG current change (%, negative = inhibition) at 1uM” value turned out to be 11.4%. `COc1ccc(C(=O)NCCN2C(=O)S/C(=C\c3cccnc3)C2=O)c(OC)c1OC`: the “hERG current change (%, negative = inhibition) at 1uM” value was -1.42%.

With `O=S(=O)(N/N=C/c1cn(Cc2ccccc2)c2ccccc12)c1ccccc1`, the “hERG current change (%, negative = inhibition) at 1uM” value is 6.23%. On to `CC(C)NC(=O)c1sc2nc(-c3cccs3)cc(-c3cccs3)c2c1N`, for which the “hERG current change (%, negative = inhibition) at 1uM” value is -2.74%.

Consider `Nc1c(-c2ccccc2)cnc2c(-c3ccccc3)cnn12`, for which the “hERG current change (%, negative = inhibition) at 1uM” value stood at 10.8%.

Take `CCOCc1nnc(NC(=O)c2cccc(OC)c2)s1`: the “hERG current change (%, negative = inhibition) at 1uM” value amounted to 13.8%. With `CC1=NN(c2ccccc2)C(=O)/C1=C/c1cc2cc(C)ccc2nc1N1CCCCC1` the figure was 8.59%. With `Cc1cc(N(CCCl)CCCl)ccc1/C=N/NC(=O)c1ccco1` the figure was 9.76%; with `CN(C(=O)COc1ccc(S(=O)(=O)N2CCOCC2)cc1[N+](=O)[O-])C1CCS(=O)(=O)C1` (stereo not shown), 22.1%.

In the case of `Cn1c(N)c(C(=O)CSc2nc3ccccc3c(=O)n2Cc2ccccc2)c(=O)n(C)c1=O`, the “hERG current change (%, negative = inhibition) at 1uM” value turned out to be 2.35%. With `CN1CCN(c2ccc([N+](=O)[O-])c(Sc3ccccn3)c2)CC1` the figure was 8.85%. For the compound `O=C(NCc1ccccc1)/C(=C/c1ccccc1)NC(=O)c1ccco1`, the “hERG current change (%, negative = inhibition) at 1uM” value is listed as -2.39%. With `CC(=O)n1nc(-c2ccccc2)nc1NCc1ccc(N(C)C)cc1` the figure was -1.63%; with `CCc1nnc(NC(=O)c2c(-c3ccccc3)noc2C)s1`, 9.07%; with `COc1ccc(CC(=O)NCCN2CCOCC2)cc1`, 11.5%. With `CCCCCCCCCC(=O)N1c2ccccc2NC(=O)C1CC(=O)Nc1ccc(C(=O)O)cc1` (stereo not shown) the figure was 8.78%. With `CS(=O)(=O)N1CCN(c2nnc(-c3ccccc3)c3ccccc23)CC1` the figure was -7.2%; with `COC(=O)\C(C(C)=O)=C(/C=C/C=C/C=C/N(C)C)N(C)C`, 4.91%. In the case of `COc1ccc(C(=O)Nc2cc(Cl)ccc2OC(=O)c2ccc(OC)cc2)cc1`, the “hERG current change (%, negative = inhibition) at 1uM” value was 8.14%. With `Fc1ccc(-n2nnnc2-c2ccccc2Cl)cc1` the figure was 11.9%; with `Cc1cccc(NS(=O)(=O)c2ccc(-c3cnc(C4CC4)o3)cc2)c1`, 17.5%.

Turning to `CCOC(=O)C(NC(=O)N(C)C)(Nc1sc(C)c(CC)c1C#N)C(F)(F)F` (stereo not shown), the “hERG current change (%, negative = inhibition) at 1uM” value is given as 0.692%. As to `CCCN(CCC)C(C)C(=O)NCC1(c2ccccc2)CCCC1.Cl` (stereo not shown), the “hERG current change (%, negative = inhibition) at 1uM” value is 5.77%. With `CCCCSc1oc(-c2ccco2)nc1S(=O)(=O)c1ccccc1` the figure was 12.9%. With `COC(=O)c1ccccc1NC(=O)Cn1c(=O)oc2ccc(Cl)cc21` the figure was 10.2%; with `Cc1cccc(C)c1OCC(=O)NCc1nnc(SCC(=O)NC2CCCCC2C)n1C` (stereo not shown), 1.8%; with `O=C(N1CCOCC1)N1CCC(n2nnc3cc(F)ccc32)CC1`, 0.687%. With `C=C(c1ccccc1O)n1ccnc1` the figure was 16%; with `COc1ccccc1-n1c(C)nnc1SCC(=O)NCc1ccccc1`, 14%.

For `CCCCOc1ccccc1C(=O)N(Cc1ccco1)C1CCS(=O)(=O)C1` (stereo not shown), the “hERG current change (%, negative = inhibition) at 1uM” value is 6.83%. With `CCn1c(=O)c2c(nc3n2CC(C)CN3CCc2ccccc2)n(C)c1=O` (stereo not shown), the “hERG current change (%, negative = inhibition) at 1uM” value is -31.2%. With `Cc1ccc(CNC(=O)CS(=O)(=O)Cc2nc(-c3ccccc3F)oc2C)cc1` the figure was 15.4%; with `c1ccc(-c2nnc(-c3ccccc3)o2)cc1`, 6.76%. With `COCCN(CCOC)Cc1c(C)[nH]c2c(C)c(C)ccc2c1=O` the figure was -3.72%; with `Cc1ccc(O)c(C2=Nc3ccccc3C2(C)C)c1`, 0.614%. With `CCCCNS(=O)(=O)C1CCS(=O)(=O)C1` (stereo not shown) the figure was 17.2%; with `C(=N\n1cnnc1)/c1ccccn1`, 3.11%.

`COc1c(Cl)cc(Cl)cc1/C=C/C(=O)c1ccc(NC(=O)c2cccs2)cc1`: the “hERG current change (%, negative = inhibition) at 1uM” value is recorded as -0.352%. With `COc1ccc(/C=C2\N=C(SC)N(C)C2=O)cc1` the figure was 4.03%.

Take `CC1N(C)c2cc(NC(=O)c3ccco3)ccc2C1(C)C` (stereo not shown): the “hERG current change (%, negative = inhibition) at 1uM” value stood at 11.3%. `Cc1ccc(-n2cnc(N)c2C(=O)c2cccc([N+](=O)[O-])c2)cc1`: the “hERG current change (%, negative = inhibition) at 1uM” value is 5.84%. For `CSCCC(NS(=O)(=O)c1ccccc1F)C(=O)NC(C)c1ccccc1` (stereo not shown), the “hERG current change (%, negative = inhibition) at 1uM” value worked out at 7.64%.

For the compound `Cc1cc(C)nc(N2CCCC(C(=O)NC3CCCC3)C2)n1` (stereo not shown), the “hERG current change (%, negative = inhibition) at 1uM” value is listed as 2.21%. With `CC(C)(C)c1ccc(Oc2ccc(NC(=O)c3cccs3)cn2)cc1` the figure was 8.97%; with `COc1cc(/C=N/NC(=S)NCCN2CCOCC2)ccc1O`, 11.5%.

Regarding `COc1ccc(CNC(=O)CN2C(=O)COc3ccc(S(=O)(=O)N4CCOCC4)cc32)cc1`, the “hERG current change (%, negative = inhibition) at 1uM” value is given as 11.4%. In the case of `Cc1nc2ccc(S(=O)(=O)Nc3cccc(-c4nc5cccnc5s4)c3C)cc2s1`, the “hERG current change (%, negative = inhibition) at 1uM” value is -0.685%.
